Assay results published in ChEMBL document CHEMBL1157539, “Thousands of chemical starting points for antimalarial lead identification” (Nature, 2010).
Whole data set: some 13,000 compounds, median “IFI” near 4, cut for the highest 2% near 17. Some of the results follow.

experiment: GSK_TCMDC: Inhibition Frequency Index (IFI). The number of non-kinase HTS assays where a compound showed > 50 % inhibition, expressed as a percentage of the number of such assays in which the compound was tested (-0 is zero); assay type: functional

| Compound | IFI |
| --- | --- |
| Fc1ccc(-c2cncc(-c3ccc(F)cc3)n2)cc1 | -0% |
| Cn1c(N)c(N=O)c(=O)[nH]c1=O | 1.41% |
| CC(C)c1ccc(CN2CCC(CNC(=O)c3cc(-c4ccccc4F)cs3)C2)cc1 (centres undefined) | 14.3% |
| O=C(NCC1CCN(Cc2cccc(C(F)(F)F)c2)C1)c1cc(-c2cccc(Cl)c2)cs1 (centres undefined) | 1.89% |
| CCNC(=O)Nc1ccc(N(C)c2ccnc(NC3CC3)n2)cc1 | 2.97% |
| COc1cc(CNCCCCCCNCc2cc(OC)c3ccccc3c2OC)c(OC)c2ccccc12 | 17.3% |
| O=C(C1CCN(C(c2ccccc2)c2ccc(Cl)c(Cl)c2)CC1)N1CC=CC1 (centres undefined) | 2.74% |
| CCOC(=O)c1ccc(NC(=O)NCCCC2CCCN(CCCCCNC(=O)/C=C/c3ccc(Cl)c(Cl)c3)C2)cc1 (centres undefined) | 8.63% |
| CC(CO)(CO)NCc1cc2c3ccccc3c(CNC(C)(CO)CO)cc2c2ccccc12 | 6.67% |
| Cc1cc(F)ccc1-c1nc(Nc2ccncc2)c2ccn(C)c2n1 | 2.82% |
| Clc1ccc(Cl)c2[nH]c(CNCCCNc3nc4ccccc4[nH]3)cc12 | 4.38% |
| Cc1ccccc1C1CCN(C2CCC(NC(=O)/C=C/c3cc(F)cc(F)c3)CC2)CC1 (centres undefined) | 6.56% |
| O=C(Nc1cccc(-c2nn3ccccc3c2-c2ccnc(Nc3cccc(C(F)(F)F)c3)n2)c1)c1c(F)cccc1F | 5.41% |
| COc1cc2nc(NCCc3ccccc3)nc(NCc3nccs3)c2cc1OC | 2.36% |
| S=C(NCCCCCN1CCC(c2c[nH]c3ccccc23)CC1)Nc1cccc(I)c1 | 7.69% |
| O=C(/C=C/c1ccc(Cl)c(Cl)c1)NCCCCCN1CCC(c2n[nH]c(-c3ccccc3)c2Br)CC1 | 12.9% |
| COc1ccc2nccc([C@@H](O)CN3CCC(NCc4ccc5sc(=O)[nH]c5c4)CC3)c2c1 | 2.22% |
| CN(C)CCNC(=O)c1csc(Nc2ccc(Cl)c(Cl)c2)n1 | 0.71% |
| CCC(C)(C)c1ccc(Oc2ccc(NC(=O)Nc3ccc(Cl)c(Cl)c3)cc2)cc1 | 4.9% |
| COc1ccc(-c2c3c(=O)n(C)c(=O)n(C)c3c3nnc4ccccc4n23)cc1 | 1.64% |
| O=c1cc(NCCCCNCc2cccc(Br)c2)[nH]c2ccccc12 | 7.46% |
| Cc1ccc(NC(=O)c2cc(Br)cc(N3CCCN(C)CC3)c2)cc1F | 6.45% |
| Fc1ccc2[nH]c(-c3ccc(-c4ccc(CNCc5ccccc5)cc4)cc3)nc2c1 | 13.1% |
| CC(C)C(=O)ONC1=NC(C)(C)N(OCCCOc2cc(Cl)c(Cl)cc2Cl)C(NOC(=O)C(C)C)=N1 | 3.52% |

| Compound | IFI |
| --- | --- |
| CN1CCCN(Cc2cccc(-c3ccc(NC(=O)c4ccc(Cl)cc4)cc3)c2)CC1 | 2.91% |
| c1cc(CN2CCN(c3ccncc3)CC2)cc(-c2ccc(-c3nc4ccccc4[nH]3)s2)c1 | 9.52% |
| CCc1n[nH]c(C(=O)Nc2cccc(N3CCCC3)c2)c1C | 8.7% |
| Cc1ccc2nc(C)cc(N/N=C/c3ccc([N+](=O)[O-])o3)c2c1 | 5.97% |
| C[C@H]1CN(Cc2ccc(-c3cccc(CNC(=O)c4cccc(C(=O)c5ccc(Cl)c(Cl)c5)c4)c3)s2)CCN1 | 16.2% |
| COc1c(C2CCN(CCCCNC(=O)c3ccc(C)c(-c4ccc(C(F)(F)F)cc4)c3)CC2)ccc2c1CCCC2 | 9.73% |
| COc1ccc2[nH]ccc(=NN=Cc3ccncc3)c2c1 | 0.72% |
| Cc1csc(-c2nc(NCCc3c(C)noc3C)ncc2-c2ccsc2)n1 | 4.71% |
| COc1ccc(-c2cccc(NC(=O)c3ccc(F)cc3)c2)cc1CN1CCCN(C)CC1 | 10.7% |
| C=CCOC(=O)N1CCC(CNCc2cccc(-c3cccc(-c4nc5cc(F)ccc5[nH]4)c3)c2)C1 (centres undefined) | 4.85% |
| Nc1nc(O)c2cc(CNc3ccc(C(=O)N[C@@H](CCC(=O)O)C(=O)O)cc3)ccc2n1 | -0% |
| CN1CCC(N(Cc2ccc(-c3cnc(NCc4ccccc4)nc3)cc2)S(=O)(=O)c2ccccc2)CC1 | 15.5% |
| Cc1cc(C2CCN(CCCCNC(=O)c3ccc(-c4ccc(C(F)(F)F)cc4)cc3)CC2)c(C)cc1OCCOC1CCCCO1 (centres undefined) | 4.63% |
| CCOc1c(C)cc(C(F)(F)F)cc1CNCCCNc1cc(=O)c2ccccc2[nH]1 | 3.5% |
| COc1ccc2nc(N3CCNCC3)nc(NCCCc3ccccc3)c2c1 | 3.01% |
| Cc1ccc(NC(=O)c2ccc(CN3CCCN(CC4CCCCC4)CC3)cc2)cc1F | 10.3% |
| O=C(Nc1ccc2ccccc2c1)N1CCC(NCc2cccc([N+](=O)[O-])c2)CC1 | 2.17% |
| O=C(/C=C/c1ccc(Cl)c(Cl)c1)NCCCCCN1CCC(CCNC(=O)/C=C/c2ccccc2F)CC1 | 6.25% |
| CCCCCN1CCCC1CNS(=O)(=O)c1cccc(C(=O)Nc2cccc(C(F)(F)F)c2)c1 (centres undefined) | 3.61% |
| Cc1ccccc1C1CCN(c2ccc(C(=O)Nc3ccc(F)cc3)cn2)CC1 | 8.33% |
| COc1cc(C(F)(F)F)nc2c(CNCCCNc3cc(=O)c4ccccc4[nH]3)scc12 | 5.15% |
| C=C1N(C)c2cc([N+](=O)[O-])c(N)cc2C1(C)C | 9.2% |
| O=C(CCCCCNC(=O)c1ccc(O)c(-c2cccc(C(F)(F)F)c2)c1)NCCN1CCCCC1 | 0.74% |
| COc1cc(C)c(C(O)CNC(C)CCc2ccccc2)cc1C (centres undefined) | 2.99% |

| Compound | IFI |
| --- | --- |
| CC(C)CCOc1ccc(NC(=O)c2cccs2)cc1 | 6.78% |
| CC(C)COc1ccc(Cl)cc1Cc1ccc(-c2nc3cc(N4CCN(C)CC4)ccc3[nH]2)o1 | 17.2% |
| Cc1cccc2nc(-c3cccc(-c4cccc(NC(=O)c5ccc(C(N)=O)cc5)c4)c3)[nH]c12 | 5.26% |
| CCCCOc1ccc(N2C(N)=NC(N)=NC2(C)C)cc1 | 2.19% |
| CC(C)=C(C(=O)OCc1ccccc1)N1C(=O)[C@@H](NC(c2ccccc2)(c2ccccc2)c2ccccc2)[C@H]1[S+]([O-])CC(=O)OC(C)(C)C (some centres undefined) | 3.03% |
| CSC1=NC(=Nc2c(C)cccc2C)C2(CCCCC2)N1c1ccccc1Cl | 3.28% |
| CC(C)n1nc(C(=O)N2CCN(c3ccccc3)CC2)c2ccccc2c1=O | 2.94% |
| O=C(Nc1ccc(-c2ccc(-c3nc4ccccc4[nH]3)s2)cc1)c1ccncc1 | 0.94% |
| CC(C)COc1ccc(Cl)cc1Cc1ccc(-c2nc3cnc4ccccc4c3[nH]2)o1 | 7.23% |
| Cc1cccc(C)c1N1CCN(C2CCC(NC(=O)/C=C/c3ccccc3)CC2)CC1 (centres undefined) | 4.55% |
| OC(CNCc1ccccc1OCc1ccccc1)c1cccc(Cl)c1 (centres undefined) | 5.51% |
| O=C(NCC1CCN(Cc2cccc(C(F)(F)F)c2)C1)c1cc(-c2cccc(C(F)(F)F)c2)cs1 (centres undefined) | 9.43% |
| CC(C)(C)C1CCC(C(=O)c2ccc3ccccc3c2O)CC1 (centres undefined) | 0% |
| Oc1c(C(Nc2nc3ccccc3s2)c2ccccc2)ccc2cccnc12 (centres undefined) | 5.19% |
| O=[N+]([O-])c1cccc(CNCC2CCN(Cc3ccc(C(F)(F)F)cc3)CC2)c1 | 3.6% |
| COc1ccc2sc(CNCCCNc3cc(=O)c4ccccc4[nH]3)c(Cl)c2c1 | 7.81% |
| O=C(C=Cc1ccc(Cl)c(Cl)c1)NCCCCCN1CCC(CCCNC(=O)/C=C/c2ccccc2)CC1 | 8.27% |
| COc1ccc2ncc(F)c(CCN3C[C@H](CNCc4cc(F)c5c(c4)NC(=O)CO5)[C@H](O)C3)c2n1 | 1.9% |
| CCOC(=O)c1ccc(-c2c(C(F)(F)F)noc2-c2cc(CC)c(OC)cc2O)o1 | 4.41% |
| O=C(CSc1nc2ccccc2c(=O)n1C1CC1)Nc1cc(C(F)(F)F)ccc1Cl | 0.71% |
| CCOc1cc(-c2nnc3[nH]c(=O)n(C)c(=O)c3n2)ccc1OC(C)C | 7.69% |
| Cc1c(S(=O)(=O)Nc2ccc3nccc(N4CC(C)NC(C)C4)c3c2)sc2ccc(Cl)cc12 (centres undefined) | 1.48% |
| CS(=O)(=O)c1ccccc1CNC(=O)c1cccc(-c2ccc(-c3nc4cc(C(F)(F)F)ccc4[nH]3)cc2)c1 | 9.43% |
| COc1cc2c(cc1OCCN1CCC(N3CCCC3)CC1)N(C(=O)/C=C/c1ccccc1Cl)CC2 | 7.75% |

| Compound | IFI |
| --- | --- |
| COc1ccc(CN2CCCC(Nc3ccc(F)c(F)c3)C2)c(O)c1 (centres undefined) | 5.41% |
| COc1ccc(CCN2CCC(NCc3cccc(N(C)C)c3)CC2)cc1 | -0% |
| COc1cccc2c(NN=Cc3cccc(F)c3)ccnc12 | 2.99% |
| COc1ccc(-c2ccccc2OCCCNc2nc(NCCc3ccc(O)cc3)nc(N3CCNCC3)n2)cc1 | 13.8% |
| O=C(Nc1ccc(CN2CCOCC2)cc1)c1ccc(-c2ccc(Br)cc2)o1 | 4.17% |
| OC(c1cc(C(F)(F)F)nc2c(F)cccc12)C1CCCCN1 (centres undefined) | 0% |
| Cc1cc(NCCc2cccc(F)c2)nc(NC(=N)Nc2cccc(C(F)(F)F)c2)n1 | 10.5% |
| CN1CCN(c2ccc(Nc3ncc([N+](=O)[O-])c(Nc4ccccc4O)n3)cc2)CC1 | 6.99% |
| CCCCNCc1ccc(-c2nc(CN(CCCn3ccnc3)C(=O)C3COc4ccccc4O3)cs2)cc1 (centres undefined) | 4.93% |
| S=C(NCCCCCN1CCC(c2c[nH]c3ccccc23)CC1)Nc1ccc(Cl)c(Cl)c1 | 11% |
| CCCNCc1ccc(-c2ccc(CN(CCOC)C(=O)c3cccc(C#N)c3)cc2)nc1 | 0.7% |
| COc1cc2c(cc1OC)CN(c1cc(N)c3cc(OC)c(OC)cc3n1)CC2 | -0% |
| Nc1c2c(nc3ccc(Oc4ccc(Cl)cc4)cc13)CCCC2 | 7.21% |
| CN(C)CCNc1nccc(N2CCc3ncnc(Nc4ccc(OCc5cccc(F)c5)c(Cl)c4)c3C2)n1 | 15.7% |
| COc1cc2nc(N3CCC(CNC(=O)c4cccc5cc[nH]c45)CC3)nc(N)c2cc1OC | 3.51% |
| CC(=O)Nc1nnc(SCc2c(C)cc(C(C)(C)C)cc2C)s1 | -0% |
| NC1CCCN(Cc2ccc(-c3cccc(-c4nc5cc(F)ccc5[nH]4)c3)cc2)C1 (centres undefined) | 5.56% |
| COC(=O)CCCOc1cc(Cc2cnc(N)nc2N)cc(OC)c1OC | 0.73% |
| CC(C)Cn1ccc2c3c(N)nc(N)nc3ccc21 | 2.5% |
| CCOC(=O)c1cc(C(=O)OC)c2ccccn12 | 1.48% |
| CCC(ON1C(N)=NC(N)=NC1(C)C)c1ccccc1 (centres undefined) | 2.17% |
| [O-][s+]1nc(NCCCN(Cc2cccs2)c2ccccn2)c(NCc2ccccc2)n1 (centres undefined) | 4.83% |
